The results in this text go back to the RNAGym collection of RNA variant scans (doi:10.7554/elife.90254).

The labels stand for the following.
B1: OR4K15 (parent)
chain: GUUAACGGUCAUAGGCCAUGGAAACUAGGAGCACCAUUUCGCUGCCAGUGAAGAAAUGAACAAAGAAAAUCUGGGCCAGGCAGGCAUCAAAAGAAAUAGUCUUGCGCUCAACCAGAAAGUCUGUAAUCAUUUUAAGGGUA

The source gives no read counts; variants with many changes may rest on few reads.

In the data set the parent is B1. The data set can be described thus: self-cleavage, relative activity (ratio to wild type); higher = more cleavage; in vitro, sequencing; the parent is a self-cleaving ribozyme.
Regarding GUUAACGGUCAUAGGCCAUGGAAACUAGGAGCACCAUUUCGCUGCCAGUGAAGAAAUGAACAAAGAAAAUCUGGGCCAGGCAGGCAACAAAAGAAAUAGUCUUGCGCUCAACCAGAAAGCCUGUGAUCAUUUUAAGGGUA, the self-cleavage amounted to 0.19.

In the case of GUUAACGGUCAUAGGCCAUGGAAACUAGGAGCACCAUUUCGCUGCCAGUGAAGAAAUGAACAAAGAAAAUCUGGGCCAGGCAGGCACCAAAAGGAACAGUCUUGCGCUCAACCGGAAAGUCUGUAAUCAUUUUAAGGGUA, the self-cleavage was determined as 0.16.

With GUUAACGGUCAUAGGCCAUGGAAACUAGGAGCACCAUUUCGCUGCCAGUGAAGAAAUGAACAAAGAAAAUCUGGGCCAGGCAGGCACCAAAAGAAAUAGUCUCGCGCUCAACCAGGAGGUCUGUAAUCAUUUUAAGGGUA, the self-cleavage is 0.23.

With GUUAACGGUCAUAGGCCAUGGAAACUAGGAGCACCAUUUCGCUGCCAGUGAAGAAAUGAACAAAGAAAAUCUGGGCCAGGCAGGCUCCAAAAGAAAUAGUCUCGCGCUCAACCAGGAAGUCUGUAAUCACUUUAAGGGUA, the self-cleavage turned out to be 0.08.

Regarding GUUAACGGUCAUAGGCCAUGGAAACUAGGAGCACCAUUUCGCUGCCAGUGAAGAAAUGAACAAAGAAAAUCUGGGCCAGGCAGGCACCAAAAGAAAUAGUCUUGCGCUCAACCUGAAAGUCUGUAACCUUUUUAAGGGUA, the self-cleavage came to 0.01.

GUUAACGGUCAUAGGCCAUGGAAACUAGGAGCACCAUUUCGCUGCCAGUGAAGAAAUGAACAAAGAAAAUCUGGGCCAGGCAGGCACCAAAAGAAAUAGUCUUGCGCUCAACCAGAACGUCUGUAAUCAUUCUAAGGGUA: the self-cleavage was 0.54.

Turning to GUUAACGGUCAUAGGCCAUGGAAACUAGGAGCACCAUUUCGCUGCCAGUGAAGAAAUGAACAAAGAAAAUCUGGGCCAGGCAGGCAACAAAAGAAAUAGUCUUGCGCUCAACCAGAAAGUCUGUAGUCAUUUUAAAGGUA, the self-cleavage is 1.91.

On to GUUAACGGUCAUAGGCCAUGGAAACUAGGAGCACCAUUUCGCUGCCAGUGAAGAAAUGAACAAAGAAAAUCUGGGCCAGGCAGGCACCAAAAGAAAUAGUCUUGCGCUCAGCCAGAAGGUCUGUAAUCAUCUUAAGGGUA, for which the self-cleavage worked out at 0.

With GUUAACGGUCAUAGGCCAUGGAAACUAGGAGCACCAUUUCGCUGCCAGUGAAGAAAUGAACAAAGAAAAUCUGGGCCAGGCAGGCACCAAGAGAAAUAGUCUUGCGCUCAACCAGUAAGUCUGUAAUCAUUUUAAGGGUA, the self-cleavage was determined as 0.03.

Turning to GUUAACGGUCAUAGGCCAUGGAAACUAGGAGCACCAUUUCGCUGCCAGUGAAGAAAUGAACAAAGAAAAUCUGGGCCAGGCAGGCAUUAAAAGAAAUAGUCCUGCGCCCAACCAGAAAGUCUGUAAUCAUUUUAAGGGUA, the self-cleavage was determined as 0.01.

Take GUUAACGGUCAUAGGCCAUGGAAACUAGGAGCACCAUUUCGCUGCCAGUGAAGAAAUGAACAAAGAAAAUCUGGGCCAGGCAGGCACCAAAAGAAAUAGUCUCGCGCUCAACCAGAAAGUCUGUAAUCACUUUAAGGGUA: the self-cleavage was determined as 0.49.

Regarding GUUAACGGUCAUAGGCCAUGGAAACUAGGAGCACCAUUUCGCUGCCAGUGAAGAAAUGAACAAAGAAAAUCUGGGCCAGGCAGGCACCAAAAGAAAUAGUCUUGCGCUCAACCAGGAAGUCUGUAAUCAUAUUAAGGGUA, the self-cleavage amounted to 0.19.

Take GUUAACGGUCAUAGGCCAUGGAAACUAGGAGCACCAUUUCGCUGCCAGUGAAGAAAUGAACAAAGAAAAUCUGGGCCAGGCAGGCACCAAAAGAAGUAGUCUUGCGCUCAGCCAGAAAGUCUGUAAUCAUUUUAAGGGUA: the self-cleavage was 0.

In the case of GUUAACGGUCAUAGGCCAUGGAAACUAGGAGCACCAUUUCGCUGCCAGUGAAGAAAUGAACAAAGAAAAUCUGGGCCAGGCAGGCACCAAGAGAAAUAGUCCUGCGCUCAACCAGAAAGUCUGUAAUCAUUUUAAGGGUA, the self-cleavage was determined as 2.08.

Take GUUAACGGUCAUAGGCCAUGGAAACUAGGAGCACCAUUUCGCUGCCAGUGAAGAAAUGAACAAAGAAAAUCUGGGCCAGGCAGGCAGCAAAAGAAUUAGUCUUGCGCUCAACCAGAAAGUCUGUAAUCAUCUUAAGGGUA: the self-cleavage worked out at 0.44.

For the variant GUUAACGGUCAUAGGCCAUGGAAACUAGGAGCACCAUUUCGCUGCCAGUGAAGAAAUGAACAAAGAAAAUCUGGGCCAGGCAGGCACCAAAAGAAAUAGUCUUGCGCUCAUCCAGAAAGCCUGUAAUCAUUUUAAGGGUA, the self-cleavage worked out at 0.01.

Consider GUUAACGGUCAUAGGCCAUGGAAACUAGGAGCACCAUUUCGCUGCCAGUGAAGAAAUGAACAAAGAAAAUCUGGGCCAGGCAGGCAUUAAGAGAAAUAGUCUUGCGCUCAACCAGAAAGUCUGCAAUCAUUUUAAGGGUA, for which the self-cleavage is 1.53.

Turning to GUUAACGGUCAUAGGCCAUGGAAACUAGGAGCACCAUUUCGCUGCCAGUGAAGAAAUGAACAAAGAAAAUCUGGGCCAGGCAGGCACCAAAAGAGAUAGUCUUGCGCUCAACCGGAAAGUCUGUAAUCAUUUUAAGGGUA, the self-cleavage is 0.38.

GUUAACGGUCAUAGGCCAUGGAAACUAGGAGCACCAUUUCGCUGCCAGUGAAGAAAUGAACAAAGAAAAUCUGGGCCAGGCAGGCACCAAGAGAAAUAAUCUUGCGCUCAACCAGAAAGUCUGUAAUCAUUUUAAGGGUA: the self-cleavage came to 0.04.

Turning to GUUAACGGUCAUAGGCCAUGGAAACUAGGAGCACCAUUUCGCUGCCAGUGAAGAAAUGAACAAAGAAAAUCUGGGCCAGGCAGGCAACAAAAGGAAUAGUCUUGCGCCCAACCAGAAAGUCUGUAAUCAUUUUAAGGGAA, the self-cleavage came out at 0.01.

For the variant GUUAACGGUCAUAGGCCAUGGAAACUAGGAGCACCAUUUCGCUGCCAGUGAAGAAAUGAACAAAGAAAAUCUGGGCCAGGCAGGCUUCGAAAGAAAUAGUCUUGCGCUCAACCAAAAAGUCUGUAAUCAUUUUAAGGGUA, the self-cleavage was determined as 0.42.

With GUUAACGGUCAUAGGCCAUGGAAACUAGGAGCACCAUUUCGCUGCCAGUGAAGAAAUGAACAAAGAAAAUCUGGGCCAGGCAGGCACCAAAAGAAAUAGUCUCGCGCUCAACCAGAAAGCCUGUAAUCAUUUUAAGGGUA, the self-cleavage stood at 0.18.

Take GUUAACGGUCAUAGGCCAUGGAAACUAGGAGCACCAUUUCGCUGCCAGUGAAGAAAUGAACAAAGAAAAUCUGGGCCAGGCAGGCUUCAGAAGAAAUAGUCCUGCGCUCAACCAGAAAGUCUGUAAUCAUUUUAAGGGUA: the self-cleavage was 1.73.

On to GUUAACGGUCAUAGGCCAUGGAAACUAGGAGCACCAUUUCGCUGCCAGUGAAGAAAUGAACAAAGAAAAUCUGGGCCAGGCAGGCACCAAAAGAAAUAGUCUUGCGCUCAACCAGAGAGUCUGUAAUCACUUUAAGGGUA, for which the self-cleavage is 1.23.

With GUUAACGGUCAUAGGCCAUGGAAACUAGGAGCACCAUUUCGCUGCCAGUGAAGAAAUGAACAAAGAAAAUCUGGGCCAGGCAGGCACCAAAAGUAAUAGUCAUGCGCUCAACCAGAAGGUCUGUAAUCAUUUUAAGGGUA, the self-cleavage was found to be 0.6.

GUUAACGGUCAUAGGCCAUGGAAACUAGGAGCACCAUUUCGCUGCCAGUGAAGAAAUGAACAAAGAAAAUCUGGGCCAGGCAGGCUUCUAAAGAAUUAGUCUUGCGCUCAACCAGAGAGUCUGUAAUCAUUUUAAGGGUA: the self-cleavage was 0.15.

Consider GUUAACGGUCAUAGGCCAUGGAAACUAGGAGCACCAUUUCGCUGCCAGUGAAGAAAUGAACAAAGAAAAUCUGGGCCAGGCAGGCAACAAAAGAAAUAGUCUUGCGCUCAAUCAGAAAGUCUGUAAUCACUUCAAGGGUA, for which the self-cleavage amounted to 0.

As for GUUAACGGUCAUAGGCCAUGGAAACUAGGAGCACCAUUUCGCUGCCAGUGAAGAAAUGAACAAAGAAAAUCUGGGCCAGGCAGGCACCAGAAGAAAUAGUCUUGCGCUCAACCAGAAAGUCUGUAAUCAUUUUAUGGGUA, the self-cleavage stood at 0.28.

Take GUUAACGGUCAUAGGCCAUGGAAACUAGGAGCACCAUUUCGCUGCCAGUGAAGAAAUGAACAAAGAAAAUCUGGGCCAGGCAGGCACCAAAAGAAAUAGUCUUGCGCUCAACCAGAAAGCCUGUAAUCAUCUUAAGGGUA: the self-cleavage is 0.19.

For GUUAACGGUCAUAGGCCAUGGAAACUAGGAGCACCAUUUCGCUGCCAGUGAAGAAAUGAACAAAGAAAAUCUGGGCCAGGCAGGCUUCAAAAGAAAUAGUCUUGCGCUCAACCAGAAAGUCCGCAAUCAUUUUAAGGGUA, the self-cleavage amounted to 1.56.

As for GUUAACGGUCAUAGGCCAUGGAAACUAGGAGCACCAUUUCGCUGCCAGUGAAGAAAUGAACAAAGAAAAUCUGGGCCAGGCAGGCACCAAAAGAAAUAGUCUUGCGCUCAACCGGGAAGUCUGUAAUCAUUUUAAGGGUA, the self-cleavage is 0.19.

As for GUUAACGGUCAUAGGCCAUGGAAACUAGGAGCACCAUUUCGCUGCCAGUGAAGAAAUGAACAAAGAAAAUCUGGGCCAGGCAGGCAUCCAAAGAAGUAGUCUUGCGCUCAACCAGAAAGUCUGUAAUCAUUUUAAGGGUG, the self-cleavage was found to be 1.51.

As for GUUAACGGUCAUAGGCCAUGGAAACUAGGAGCACCAUUUCGCUGCCAGUGAAGAAAUGAACAAAGAAAAUCUGGGCCAGGCAGGCACCAAAAGAAAUAGUCUUGCGCUCAACCAGUAAGUCUGUGAUCAUUUUAAGGGUA, the self-cleavage was 0.03.

For GUUAACGGUCAUAGGCCAUGGAAACUAGGAGCACCAUUUCGCUGCCAGUGAAGAAAUGAACAAAGAAAAUCUGGGCCAGGCAGGCACCAAAAGAAAUAGCCUUGCGCCCAACCUGAAAGUCUGUAAUCAUUUAAAGGGUA, the self-cleavage came out at 0.

With GUUAACGGUCAUAGGCCAUGGAAACUAGGAGCACCAUUUCGCUGCCAGUGAAGAAAUGAACAAAGAAAAUCUGGGCCAGGCAGGCACCAAAAGAAAUAGUCUCGCGCUCAACCAGAAAGUCUGAAAUCAUUUUAAGGGUA, the self-cleavage was determined as 0.42.

As to GUUAACGGUCAUAGGCCAUGGAAACUAGGAGCACCAUUUCGCUGCCAGUGAAGAAAUGAACAAAGAAAAUCUGGGCCAGGCAGGCAUCCAAAGGAAUAGUCUUGCGCUCAACCAGAAAGUCUGUAGUCAUCUUAAGGGUA, the self-cleavage was determined as 0.25.

As for GUUAACGGUCAUAGGCCAUGGAAACUAGGAGCACCAUUUCGCUGCCAGUGAAGAAAUGAACAAAGAAAAUCUGGGCCAGGCAGGCUUCAAAAGAAAUAGUCUUGCGCUCGACCAGACAGUCUGUAAUCAUUUUGAGGGUA, the self-cleavage was 0.02.

GUUAACGGUCAUAGGCCAUGGAAACUAGGAGCACCAUUUCGCUGCCAGUGAAGAAAUGAACAAAGAAAAUCUGGGCCAGGCAGGCACCAGAAGAAACAGUCUUGCGCUCAACCAGAAAGUCUGUAAUCAUUUUAAGGGUA: the self-cleavage amounted to 0.28.

For the variant GUUAACGGUCAUAGGCCAUGGAAACUAGGAGCACCAUUUCGCUGCCAGUGAAGAAAUGAACAAAGAAAAUCUGGGCCAGGCAGGCACCAAAAGAAAUAGUCUUGCGCUCAACCUGAAAGUCUGUAAUCAUUUUAGGGGUA, the self-cleavage is 0.03.

Take GUUAACGGUCAUAGGCCAUGGAAACUAGGAGCACCAUUUCGCUGCCAGUGAAGAAAUGAACAAAGAAAAUCUGGGCCAGGCAGGCUUCAAGAGAAAUAGUCUUGCGCUCAACCAGAAAGUCUGUAAUCAUCUUAAGGGUA: the self-cleavage is 2.11.

For the variant GUUAACGGUCAUAGGCCAUGGAAACUAGGAGCACCAUUUCGCUGCCAGUGAAGAAAUGAACAAAGAAAAUCUGGGCCAGGCAGGCACCAAAAGGAGUAGUCUUGCGCUCAACCAGAAAGUCUGUAAUCAUUUUAAGGGUA, the self-cleavage is 1.41.
